# Data reported in the supplement of paper PMC8728848.
# This is one part of the list.
# B1: Banana lectin (Musa acuminata) (protein)
# chain: MNGAIKVGAWGGNGGSAFDMGPAYRIISVKIFSGDVVDGVDVTFTYYGKTETRHYGGSGGTPHEIVLQEGEYLVGMAGEVANYTGAVVLGKLGFSTNKKAYGPFGNTGGTPFSLPIAAGKISGFFGRGGKFLDAIGVYLEPLEHHHHHH
# Tests used:
# Experiment in all cases: glycan array binding signal (z-score within array); higher = stronger binding
# Settings in all cases: glycan notation: IUPAC condensed, linker removed; mutation: H84T
# [1] = molecular target: Neu5Ac(a2-3)Gal6S(b1-4)[Fuc(a1-3)]GlcNAc
# Summary of the method: (§1)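 The Consortium for Functional Glycomics database supplied 3228 glycan arrays, of which those lacking an available protein sequence were dropped. The binding signal, a within-array Z-score, was averaged across arrays of the same protein sequence and across linkers. Negative scores can be read as non-binding.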
# Neu5Ac(a2-3)GalNAc = molecular target: Neu5Ac(a2-3)GalNAc
# Summary of the method: as §1
# [2] = molecular target: Neu5Ac(a2-3)GalNAc(b1-4)GlcNAc
# Summary of the method: as §1
# [3] = molecular target: Neu5Ac(a2-3)[GalNAc(b1-4)]Gal(b1-4)Glc
# Summary of the method: as §1
# [4] = molecular target: Neu5Ac(a2-3)[GalNAc(b1-4)]Gal(b1-4)GlcNAc
# Summary of the method: as §1
# [5] = molecular target: Neu5Ac(a2-3)[GalNAc(b1-4)]Gal(b1-4)GlcNAc(b1-3)GalNAc
# Summary of the method: as §1
# [6] = molecular target: Neu5Ac(a2-3)[Neu5Ac(a2-6)]GalNAc
# Summary of the method: as §1
# Neu5Ac(a2-6)Gal = molecular target: Neu5Ac(a2-6)Gal
# Summary of the method: as §1
# [7] = molecular target: Neu5Ac(a2-6)Gal(b1-3)GlcNAc(b1-3)[Gal(b1-4)GlcNAc(b1-6)]Gal(b1-4)Glc
# Summary of the method: as §1
# Neu5Ac(a2-6)Gal(b1-4)Glc = molecular target: Neu5Ac(a2-6)Gal(b1-4)Glc
# Summary of the method: as §1
# [8] = molecular target: Neu5Ac(a2-6)Gal(b1-4)GlcNAc
# Summary of the method: as §1
# [9] = molecular target: Neu5Ac(a2-6)Gal(b1-4)GlcNAc(b1-2)Man
# Summary of the method: as §1
# [10] = molecular target: Neu5Ac(a2-6)Gal(b1-4)GlcNAc(b1-2)Man(a1-3)Man(b1-4)GlcNAc(b1-4)GlcNAc
# Summary of the method: as §1
# [11] = molecular target: Neu5Ac(a2-6)Gal(b1-4)GlcNAc(b1-2)Man(a1-3)[Gal(b1-4)GlcNAc(b1-2)Man(a1-6)]Man(b1-4)GlcNAc(b1-4)GlcNAc
# Summary of the method: as §1
# [12] = molecular target: Neu5Ac(a2-6)Gal(b1-4)GlcNAc(b1-2)Man(a1-3)[GlcNAc(b1-2)Man(a1-6)]Man(b1-4)GlcNAc(b1-4)GlcNAc
# Summary of the method: as §1
# [13] = molecular target: Neu5Ac(a2-6)Gal(b1-4)GlcNAc(b1-2)Man(a1-3)[GlcNAc(b1-4)][Neu5Ac(a2-6)Gal(b1-4)GlcNAc(b1-2)Man(a1-6)]Man(b1-4)GlcNAc(b1-4)GlcNAc
# Summary of the method: as §1
# [14] = molecular target: Neu5Ac(a2-6)Gal(b1-4)GlcNAc(b1-2)Man(a1-3)[Man(a1-6)]Man(b1-4)GlcNAc(b1-4)GlcNAc
# Summary of the method: as §1
# [15] = molecular target: Neu5Ac(a2-6)Gal(b1-4)GlcNAc(b1-2)Man(a1-3)[Neu5Ac(a2-3)Gal(b1-4)GlcNAc(b1-2)Man(a1-6)]Man(b1-4)GlcNAc(b1-4)GlcNAc
# Summary of the method: as §1
# [16] = molecular target: Neu5Ac(a2-6)Gal(b1-4)GlcNAc(b1-2)Man(a1-3)[Neu5Ac(a2-6)Gal(b1-4)GlcNAc(b1-2)Man(a1-6)]Man(b1-4)GlcNAc(b1-4)GlcNAc
# Summary of the method: as §1
# [17] = molecular target: Neu5Ac(a2-6)Gal(b1-4)GlcNAc(b1-2)Man(a1-3)[Neu5Ac(a2-6)Gal(b1-4)GlcNAc(b1-2)Man(a1-6)]Man(b1-4)GlcNAc(b1-4)[Fuc(a1-6)]GlcNAc
# Summary of the method: as §1
# [18] = molecular target: Neu5Ac(a2-6)Gal(b1-4)GlcNAc(b1-2)Man(a1-6)Man(b1-4)GlcNAc(b1-4)GlcNAc
# Summary of the method: as §1
# [19] = molecular target: Neu5Ac(a2-6)Gal(b1-4)GlcNAc(b1-2)Man(a1-6)[Gal(b1-4)GlcNAc(b1-2)Man(a1-3)]Man(b1-4)GlcNAc(b1-4)GlcNAc
# Summary of the method: as §1
# [20] = molecular target: Neu5Ac(a2-6)Gal(b1-4)GlcNAc(b1-2)Man(a1-6)[GlcNAc(b1-2)Man(a1-3)]Man(b1-4)GlcNAc(b1-4)GlcNAc
# Summary of the method: as §1
# [21] = molecular target: Neu5Ac(a2-6)Gal(b1-4)GlcNAc(b1-2)Man(a1-6)[Man(a1-3)]Man(b1-4)GlcNAc(b1-4)GlcNAc
# Summary of the method: as §1
# [22] = molecular target: Neu5Ac(a2-6)Gal(b1-4)GlcNAc(b1-2)[Neu5Ac(a2-6)Gal(b1-4)GlcNAc(b1-4)]Man(a1-3)[GlcNAc(b1-4)][Neu5Ac(a2-6)Gal(b1-4)GlcNAc(b1-2)[Neu5Ac(a2-6)Gal(b1-4)GlcNAc(b1-6)]Man(a1-6)]Man(b1-4)GlcNAc(b1-4)GlcNAc
# Summary of the method: as §1
# [23] = molecular target: Neu5Ac(a2-6)Gal(b1-4)GlcNAc(b1-2)[Neu5Ac(a2-6)Gal(b1-4)GlcNAc(b1-4)]Man(a1-3)[GlcNAc(b1-4)][Neu5Ac(a2-6)Gal(b1-4)GlcNAc(b1-4)Man(a1-6)]Man(b1-4)GlcNAc(b1-4)GlcNAc
# Summary of the method: as §1
# [24] = molecular target: Neu5Ac(a2-6)Gal(b1-4)GlcNAc(b1-2)[Neu5Ac(a2-6)Gal(b1-4)GlcNAc(b1-6)]Man(a1-6)[Neu5Ac(a2-6)Gal(b1-4)GlcNAc(b1-2)Man(a1-3)][GlcNAc(b1-4)]Man(b1-4)GlcNAc(b1-4)GlcNAc
# Summary of the method: as §1
# [25] = molecular target: Neu5Ac(a2-6)Gal(b1-4)GlcNAc(b1-3)Gal(b1-3)GlcNAc
# Summary of the method: as §1
# [26] = molecular target: Neu5Ac(a2-6)Gal(b1-4)GlcNAc(b1-3)Gal(b1-4)GlcNAc
# Summary of the method: as §1
# [27] = molecular target: Neu5Ac(a2-6)Gal(b1-4)GlcNAc(b1-3)Gal(b1-4)GlcNAc(b1-2)Man(a1-3)[Neu5Ac(a2-6)Gal(b1-4)GlcNAc(b1-3)Gal(b1-4)GlcNAc(b1-2)Man(a1-6)]GalNAc
# Summary of the method: as §1
# [28] = molecular target: Neu5Ac(a2-6)Gal(b1-4)GlcNAc(b1-3)Gal(b1-4)GlcNAc(b1-3)Gal(b1-4)GlcNAc
# Summary of the method: as §1
# [29] = molecular target: Neu5Ac(a2-6)Gal(b1-4)GlcNAc(b1-3)Gal(b1-4)GlcNAc(b1-3)Gal(b1-4)GlcNAc(b1-2)Man(a1-3)[Neu5Ac(a2-6)Gal(b1-4)GlcNAc(b1-3)Gal(b1-4)GlcNAc(b1-3)Gal(b1-4)GlcNAc(b1-2)Man(a1-6)]GalNAc
# Summary of the method: as §1
# [30] = molecular target: Neu5Ac(a2-6)Gal(b1-4)GlcNAc(b1-3)Gal(b1-4)GlcNAc(b1-3)GalNAc
# Summary of the method: as §1
# [31] = molecular target: Neu5Ac(a2-6)Gal(b1-4)GlcNAc(b1-3)Gal(b1-4)GlcNAc(b1-3)[Neu5Ac(a2-6)Gal(b1-4)GlcNAc(b1-3)Gal(b1-4)GlcNAc(b1-6)]GalNAc
# Summary of the method: as §1
# [32] = molecular target: Neu5Ac(a2-6)Gal(b1-4)GlcNAc(b1-3)Gal(b1-4)GlcNAc(b1-6)[Gal(b1-3)]GalNAc
# Summary of the method: as §1
# [33] = molecular target: Neu5Ac(a2-6)Gal(b1-4)GlcNAc(b1-3)Gal(b1-4)[Fuc(a1-3)]GlcNAc(b1-3)Gal(b1-4)[Fuc(a1-3)]GlcNAc
# Summary of the method: as §1
# [34] = molecular target: Neu5Ac(a2-6)Gal(b1-4)GlcNAc(b1-3)GalNAc
# Summary of the method: as §1
# [35] = molecular target: Neu5Ac(a2-6)Gal(b1-4)GlcNAc(b1-3)[Neu5Ac(a2-6)Gal(b1-4)GlcNAc(b1-6)]GalNAc
# Summary of the method: as §1
# [36] = molecular target: Neu5Ac(a2-6)Gal(b1-4)GlcNAc(b1-6)GalNAc
# Summary of the method: as §1
# [37] = molecular target: Neu5Ac(a2-6)Gal(b1-4)GlcNAc(b1-6)[Gal(b1-3)GlcNAc(b1-3)]Gal(b1-4)Glc
# Summary of the method: as §1
# [38] = molecular target: Neu5Ac(a2-6)Gal(b1-4)GlcNAc(b1-6)[Gal(b1-3)]GalNAc
# Summary of the method: as §1
# [39] = molecular target: Neu5Ac(a2-6)Gal(b1-4)GlcNAc6S
# Summary of the method: as §1
# Neu5Ac(a2-6)GalNAc = molecular target: Neu5Ac(a2-6)GalNAc
# Summary of the method: as §1
# [40] = molecular target: Neu5Ac(a2-6)GalNAc(b1-4)GlcNAc
# Summary of the method: as §1
# [41] = molecular target: Neu5Ac(a2-6)GalNAc(b1-4)GlcNAc6S
# Summary of the method: as §1
binder,measurement,setting,value
B1,glycan array binding signal (z-score),[1],-0.193
same,glycan array binding signal (z-score),Neu5Ac(a2-3)GalNAc,-0.177
same,glycan array binding signal (z-score),[2],-0.191
same,glycan array binding signal (z-score),[3],-0.183
same,glycan array binding signal (z-score),[4],-0.172
same,glycan array binding signal (z-score),[5],-0.176
same,glycan array binding signal (z-score),[6],-0.174
same,glycan array binding signal (z-score),Neu5Ac(a2-6)Gal,-0.173
same,glycan array binding signal (z-score),[7],-0.195
same,glycan array binding signal (z-score),Neu5Ac(a2-6)Gal(b1-4)Glc,-0.192
same,glycan array binding signal (z-score),[8],-0.205
same,glycan array binding signal (z-score),[9],-0.153
same,glycan array binding signal (z-score),[10],-0.163
same,glycan array binding signal (z-score),[11],-0.199
same,glycan array binding signal (z-score),[12],-0.159
same,glycan array binding signal (z-score),[13],-0.16
same,glycan array binding signal (z-score),[14],0.399
same,glycan array binding signal (z-score),[15],-0.141
same,glycan array binding signal (z-score),[16],-0.164
same,glycan array binding signal (z-score),[17],-0.15
same,glycan array binding signal (z-score),[18],-0.146
same,glycan array binding signal (z-score),[19],-0.134
same,glycan array binding signal (z-score),[20],-0.188
same,glycan array binding signal (z-score),[21],1.33
same,glycan array binding signal (z-score),[22],-0.159
same,glycan array binding signal (z-score),[23],-0.177
same,glycan array binding signal (z-score),[24],-0.174
same,glycan array binding signal (z-score),[25],-0.188
same,glycan array binding signal (z-score),[26],-0.205
same,glycan array binding signal (z-score),[27],-0.094
same,glycan array binding signal (z-score),[28],-0.161
same,glycan array binding signal (z-score),[29],-0.177
same,glycan array binding signal (z-score),[30],-0.214
same,glycan array binding signal (z-score),[31],-0.161
same,glycan array binding signal (z-score),[32],-0.221
same,glycan array binding signal (z-score),[33],-0.085
same,glycan array binding signal (z-score),[34],-0.177
same,glycan array binding signal (z-score),[35],-0.173
same,glycan array binding signal (z-score),[36],-0.158
same,glycan array binding signal (z-score),[37],-0.172
same,glycan array binding signal (z-score),[38],-0.182
same,glycan array binding signal (z-score),[39],-0.145
same,glycan array binding signal (z-score),Neu5Ac(a2-6)GalNAc,-0.16
same,glycan array binding signal (z-score),[40],-0.198
same,glycan array binding signal (z-score),[41],-0.17
